{"source": "PubChem BioAssay AID686978", "about": "(National Center for Advancing Translational Sciences (NCATS), 2013)", "note": "About 64,000 (15%) of roughly 420,000 compounds were called active. This list was built around the results that the source calls inconclusive (neither active nor inactive); the mix of calls is not that of the screen. The call rests on the fitted dose curve; in most records, active means well fitted inhibition curve with a large enough effect; inconclusive means small, poorly fitted or top-dose-only effect; inactive means flat fitted curve, though single readings scatter. No potency is given beside an inconclusive call; the fits are too rough. On the % scale 0 is the no-effect control and ±100 the full control effect; potency means the concentration at half of the fitted maximal effect; tags describe the fitted curve by direction and shape."}
{"assay": "qHTS for Inhibitors of human tyrosyl-DNA phosphodiesterase 1 (TDP1): qHTS in cells in absence of CPT; further: nearly all actives have a fitted effect of over 55% in size", "details": "DT40 Tdp1-/- hTDP1 cells, no CPT, ATP luminescence, 48 h; activity change, negative = growth inhibition: at 46.2 µM (top of the series) unless noted", "method_in_brief": "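No-CPT arm: Tdp1-/-;hTDP1 DT40 cells (400/well) plus compounds, incubated ≥48 hr at 37 °C. Readout CellTiter-Glo luminescence.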"}
{"smiles": "CN(C)C(=O)CSc1nc(-c2ccccc2)c(-c2ccccc2)o1", "Potency": "inconclusive [inhibitor, single point]"}
{"smiles": "Cc1ccc(C)c(NC(=O)C2CC3c4ccccc4C2c2ccccc23)c1", "note": "(configuration not stated)", "Potency": "inconclusive [inhibitor, partial curve, poor fit]"}
{"smiles": "Clc1cccc(CN2C3=NCCCN3c3ccccc32)c1", "Potency": "inconclusive [inhibitor, single point]"}
{"smiles": "CCCCNc1nc2c(c(=O)[nH]c(=O)n2C)n1CCOc1ccccc1", "activity change, negative = growth inhibition": "inconclusive: -31.5% [inhibitor]"}
{"smiles": "Cc1ccccc1NC(=O)N1CCCC(c2nc(-c3ccc(C(C)C)cc3)no2)C1", "note": "(configuration not stated)", "Potency": "active: 35.5 µM"}
{"smiles": "Cc1cccc(-[n+]2c(-c3cccc(Br)c3)[nH]c3nc4ccccc4nc32)c1", "Potency": "inconclusive [inhibitor, single point]"}
{"smiles": "Cc1ccccc1N=C1Nc2ccc(Cl)cc2N[C@]12C[C@H]1CCCC(=O)N3CC[C@@H](C2)[C@@H]13", "Potency": "inconclusive [inhibitor, single point]"}
{"smiles": "O=C(CN1C(=O)C(=O)N(CCC2=CCCCC2)C1=O)c1c[nH]c2ccccc12", "Potency": "inconclusive [inhibitor, single point]"}
{"smiles": "CC(C)CCNC(=O)C1CCCN(S(=O)(=O)c2ccc3c(c2)CC(C)N3C(=O)C2CC2)C1", "note": "(configuration not stated)", "activity change, negative = growth inhibition": "inactive: -27.1%"}
{"smiles": "Cc1cccn2c(CNCC3OCCc4ccccc43)c(C(=O)N3CCCCC3)nc12", "note": "(configuration not stated)", "Potency": "inconclusive [inhibitor, single point]"}
{"smiles": "Cc1cc(C)cc(OCC(=O)N(Cc2ccco2)c2c(N)n(Cc3ccccc3)c(=O)[nH]c2=O)c1", "activity change, negative = growth inhibition": "inactive: 2.69%"}
{"smiles": "CCCCNC(=O)Cn1nc([N+](=O)[O-])c([N+](=O)[O-])c1C", "activity change, negative = growth inhibition": "inactive: -6.39%"}
{"smiles": "Cc1cccc(-n2cnc(C(=O)NC3CCCCCC3)c2)n1", "Potency": "inconclusive [inhibitor, single point]"}
{"smiles": "N#C/C(C(=S)Nc1ccccc1)=C1/NN=C(N2CCOCC2)N1c1ccccc1", "Potency": "inconclusive [inhibitor, single point]"}
{"smiles": "C=C(C)CSc1nc2sc3c(c2c(=O)n1CCCC)CCCC3", "activity change, negative = growth inhibition": "inactive: -17.2%"}
{"smiles": "CCOC(=O)CNc1nc(Cl)nc(Nc2ccc(OC)cc2OC)n1", "activity change, negative = growth inhibition": "inactive: -24.2%"}
{"smiles": "CC(C)(C#N)NC(=O)C1CCCN1S(=O)(=O)c1ccc2ccccc2c1", "note": "(configuration not stated)", "Potency": "inconclusive [inhibitor, partial curve]"}
{"smiles": "CCOC(=O)N1CCN(C(=O)c2cccc(S(=O)(=O)Nc3ccc(Br)cc3)c2)CC1", "Potency": "inconclusive [inhibitor, single point]"}
{"smiles": "Cc1ccccc1OCC(O)Cn1c(NCc2ccco2)nc2c1c(=O)n(C)c(=O)n2C", "note": "(configuration not stated)", "Potency": "active: 10.3 µM"}
{"smiles": "CCn1c2c(c(=O)n3ncc(C(=O)Nc4cccc(Cl)c4C)c13)CN(Cc1ccc(OC)cc1)CC2", "Potency": "inconclusive [inhibitor, single point]"}
{"smiles": "C/C(=N\\Nc1ccc([N+](=O)[O-])cc1)c1cccc(N)c1", "Potency": "active: 20.6 µM"}
{"smiles": "Cc1onc(-c2ccccc2)c1C(=O)Nc1nc(-c2ccccc2)cs1", "Potency": "inconclusive [inhibitor, single point]"}
{"smiles": "Cc1nc(NC(=O)C(C)Oc2cccc(Cl)c2)sc1C(=O)N(C)C", "note": "(configuration not stated)", "Potency": "inconclusive [inhibitor, partial curve, poor fit]"}
{"smiles": "Cc1cc(Cl)c(S(=O)(=O)NCc2cccnc2)cc1OCC(N)=O", "activity change, negative = growth inhibition": "inactive: -3.14%"}
{"smiles": "COC(=O)c1ccc(OC(=O)c2ccc(OC)cc2)c(OC)c1", "activity change, negative = growth inhibition": "inactive: 1.58%"}
{"smiles": "CCCCN(NC(C)=O)c1nc(Cl)nc(NC(C)C)n1", "activity change, negative = growth inhibition": "inactive: -1.52%"}
{"smiles": "CSc1ccccc1NC(=O)COC(=O)c1ccc(O)cc1", "Potency": "inconclusive [inhibitor, partial curve, poor fit]"}
{"smiles": "Cc1n[nH]c(=O)nc1NCC1CCCO1", "note": "(configuration not stated)", "activity change, negative = growth inhibition": "inactive: -29.8%"}
{"smiles": "Cc1cc(C)c2c(N)c(-c3nc4ccccc4[nH]3)sc2n1", "Potency": "inconclusive [inhibitor, partial curve, poor fit]"}
{"smiles": "COc1ccc(CNC[C@@H](CCCCN(C)Cc2ccc(OC)cc2)N2C[C@H](c3ccccc3)N(CCc3ccc(Cl)c(Cl)c3)C(=O)C2=O)cc1", "Potency": "active: 4.11 µM"}
{"smiles": "Cc1cc(C)cc(NC(=O)CSc2nncn3c2cc2occc23)c1", "Potency": "inconclusive [inhibitor, single point]"}
{"smiles": "COc1ccc(C(=O)/C=C/c2ccc(OC)c(CN3CCOCC3)c2)cc1", "Potency": "active: 23.1 µM"}
{"smiles": "O=S1(=O)Nc2c(ccc3cccnc23)-c2ccccc21", "Potency": "active: 1.46 µM"}
{"smiles": "COc1ccc(-c2[nH]ncc2/C=N\\NS(=O)(=O)c2ccccc2)cc1OC", "Potency": "inconclusive [inhibitor, single point]"}
{"smiles": "Oc1[nH]c2ccccc2c1N=NC(=S)NCC1CCCO1", "note": "(configuration not stated)", "Potency": "inconclusive [inhibitor, single point]"}
{"smiles": "Cc1ccc(-c2csc(-c3c[nH]c4ccccc34)n2)c(C)c1", "Potency": "inconclusive [inhibitor, single point]"}
{"smiles": "Cn1cnnc1SCC(=O)Nc1ccc(OC(F)F)cc1", "activity change, negative = growth inhibition": "inactive: 11.3%"}
{"smiles": "COc1cccc(-c2nc(CN3CCN(C(=O)c4ccco4)CC3)c(C)o2)c1OC", "Potency": "inconclusive [inhibitor, single point]"}
{"smiles": "O=C(O)CCCCCNC(=O)Cn1nnc2ccccc2c1=O", "activity change, negative = growth inhibition": "inactive: 0.777%"}
{"smiles": "Cc1ccc(CN2CCC[C@]3(N[C@H](c4ccccc4)[C@@H]4C(=O)N(Cc5ccccc5)C(=O)[C@@H]43)C2=O)cc1", "Potency": "active: 16.4 µM"}
{"smiles": "O=C1C(Nc2ccccc2)=C(N2CCCCC2)C(=O)c2ccccc21", "Potency": "active: 9.2 µM"}
{"smiles": "CCCn1nc2cc(C(=O)NC3CCc4ccccc43)ccc2c1OCC", "note": "(configuration not stated)", "Potency": "inconclusive [inhibitor, single point]"}
{"smiles": "COc1ccc(/C=C2\\N=C(c3c(-c4ccccc4)noc3C)OC2=O)cc1OC", "activity change, negative = growth inhibition": "inactive: -16.8%"}
{"smiles": "O=Cc1cn(-c2ccccc2)nc1-c1ccncc1", "Potency": "active: 23.1 µM"}
{"smiles": "CCCn1c(SCC(O)c2cccc(OC)c2)nc2ccccc21", "note": "(configuration not stated)", "Potency": "inconclusive [inhibitor, single point]"}
{"smiles": "Cc1ccc(O)c(Cn2nnc3ccccc32)c1", "activity change, negative = growth inhibition": "inactive: -28%"}
{"smiles": "CCC(=O)c1cc2c(cc1NC(=O)C(C)C)OCCO2", "Potency": "inconclusive [inhibitor, single point]"}
{"smiles": "CC(C)CCn1c(NCCN(C)C)nc2c1c(=O)[nH]c(=O)n2C", "Potency": "inconclusive [inhibitor, full curve]"}
{"smiles": "CC(=O)c1cccc(Nc2nc(-c3cccc([N+](=O)[O-])c3)cs2)c1", "Potency": "inconclusive [inhibitor, single point]"}
{"smiles": "Cc1ccc(S(=O)(=O)N2CCCCC2)cc1NC(=O)Cn1c(=O)cnc2ccccc21", "activity change, negative = growth inhibition": "inconclusive: -33.9% [inhibitor]"}
{"smiles": "Cc1ccc(C)c(CN2CCCN(Cc3cc(C)ccc3C)S2(=O)=O)c1", "Potency": "active: 9.2 µM"}
{"smiles": "O=C(NNS(=O)(=O)c1ccc(F)cc1)c1cc(Cl)ccc1O", "activity change, negative = growth inhibition": "inconclusive: -30.4% [inhibitor]"}
{"smiles": "CCC1Oc2ccc(C)cc2N(CC(=O)NCc2cccs2)C1=O", "note": "(configuration not stated)", "activity change, negative = growth inhibition": "inactive: -25%"}
{"smiles": "COC(=O)c1cn(CC(=O)Nc2ccc(F)cc2)c2ccccc12", "Potency": "inconclusive [inhibitor, partial curve]"}
{"smiles": "CCCCCCc1ccc(OC(=O)c2ccncc2)cc1", "activity change, negative = growth inhibition": "inactive: -22.9%"}
{"smiles": "CCC1(C)Cc2ccccc2-c2nc(SC)[nH]c(=O)c21", "note": "(configuration not stated)", "Potency": "inconclusive [inhibitor, single point]"}
{"smiles": "C=CCNC(=S)NCCCCC1NC(=S)N(CC=C)C1=O", "note": "(configuration not stated)", "activity change, negative = growth inhibition": "inactive: 5.22%"}
{"smiles": "Cc1cc(NC(=O)c2c([N+](=O)[O-])cnn2C)no1", "activity change, negative = growth inhibition": "inactive: 1.04%"}
{"smiles": "COc1cccc(C(=O)COC(=O)c2ccc(NC(C)=O)cc2)c1", "activity change, negative = growth inhibition": "inactive: 1.65%"}
{"smiles": "O=C(Nc1nccs1)c1nc[nH]c1C(=O)NCc1ccccc1", "activity change, negative = growth inhibition": "inactive: 0.114%"}
{"smiles": "CCc1nc2ccccc2n1CCCCOc1ccccc1C", "Potency": "active: 25.9 µM"}
{"smiles": "COc1cccc(NC(=O)C(=O)NCCC2CCCCN2S(=O)(=O)c2cccs2)c1", "note": "(configuration not stated)", "Potency": "active: 16.4 µM"}
{"smiles": "Cc1cc(NC(=O)CSc2nc3c(C)cccc3cc2C#N)no1", "Potency": "active: 14.6 µM"}
{"smiles": "CCN(CC)CCN(C(=O)/C=C/c1cccs1)c1nc2ccc(C)cc2s1", "Potency": "active: 6.51 µM"}
{"smiles": "CC(C)C[C@@H](CN1CCCC1CN1C(=S)NC[C@@H]1Cc1ccccc1)N1C[C@H](Cc2ccc(O)cc2)N(CC2CCCCC2)C1=S", "note": "(some centres not stated)", "Potency": "active: 18.4 µM"}
{"smiles": "COC(=O)c1ccc(-n2c(/C=C\\c3cccc(Br)c3)nc3ccccc3c2=O)cc1", "Potency": "active: 2.91 µM"}
{"smiles": "C=CC(=O)Nc1sc2c(c1C(N)=O)CCCC2", "Potency": "inconclusive [inhibitor, single point]"}
{"smiles": "Cc1ccc(C(=O)Nc2nnc(-c3ccco3)o2)cc1C", "Potency": "active: 14.6 µM"}
{"smiles": "CC1CCN(C2(O)C(=O)Nc3ccc([N+](=O)[O-])cc32)CC1", "note": "(configuration not stated)", "activity change, negative = growth inhibition": "inactive: -24.1%"}
{"smiles": "Cc1ccc(S(=O)(=O)C(CNC(=O)C(=O)NCCc2ccccc2)c2ccco2)cc1", "note": "(configuration not stated)", "Potency": "inconclusive [inhibitor, single point]"}
{"smiles": "CC(Nc1nc(N2CCCC2)nc2ccccc12)c1ccccc1", "note": "(configuration not stated)", "Potency": "active: 20.6 µM"}
{"smiles": "O=c1cc(NC2CCCCC2)c2ccccc2o1", "Potency": "inconclusive [inhibitor, partial curve]"}
{"smiles": "C=CCSCC(N)C(=O)O", "note": "(configuration not stated)", "activity change, negative = growth inhibition": "inactive: 4.74%"}
{"smiles": "Cn1c(N)nc(N)c(NC=O)c1=O", "activity change, negative = growth inhibition": "inactive: 12.7%"}
{"smiles": "Cc1cc([N+](=O)[O-])ccc1NC(=S)NC(=O)Cc1ccccc1", "activity change, negative = growth inhibition": "inactive: -26.5%"}
{"smiles": "CC1(C)OC(C)(C)/C(=C/Nc2ccc(O)cc2)C1=O", "Potency": "active: 23.1 µM"}
{"smiles": "Cc1ccc(OCc2nc(-c3ccc(C(=O)N4CCN(c5ccc(Cl)cc5)CC4)cc3)oc2C)cc1", "Potency": "inconclusive [inhibitor, single point]"}
